Laboratory results published in PMC4336329 (PLoS ONE, 2015).
Screen size: about 310,000 compounds; about 2,200 (0.71%) showed an effect of 50% or more. Effects have a minus sign here. The list shows a part of the results.

Target: human ether-à-go-go-related gene (hERG) potassium channel (human, UniProt Q12809)
Test: primary screen, population patch clamp on CHO cells stably expressing hERG

Sequence of human ether-à-go-go-related gene (hERG) potassium channel (Q12809 whole entry, looked up): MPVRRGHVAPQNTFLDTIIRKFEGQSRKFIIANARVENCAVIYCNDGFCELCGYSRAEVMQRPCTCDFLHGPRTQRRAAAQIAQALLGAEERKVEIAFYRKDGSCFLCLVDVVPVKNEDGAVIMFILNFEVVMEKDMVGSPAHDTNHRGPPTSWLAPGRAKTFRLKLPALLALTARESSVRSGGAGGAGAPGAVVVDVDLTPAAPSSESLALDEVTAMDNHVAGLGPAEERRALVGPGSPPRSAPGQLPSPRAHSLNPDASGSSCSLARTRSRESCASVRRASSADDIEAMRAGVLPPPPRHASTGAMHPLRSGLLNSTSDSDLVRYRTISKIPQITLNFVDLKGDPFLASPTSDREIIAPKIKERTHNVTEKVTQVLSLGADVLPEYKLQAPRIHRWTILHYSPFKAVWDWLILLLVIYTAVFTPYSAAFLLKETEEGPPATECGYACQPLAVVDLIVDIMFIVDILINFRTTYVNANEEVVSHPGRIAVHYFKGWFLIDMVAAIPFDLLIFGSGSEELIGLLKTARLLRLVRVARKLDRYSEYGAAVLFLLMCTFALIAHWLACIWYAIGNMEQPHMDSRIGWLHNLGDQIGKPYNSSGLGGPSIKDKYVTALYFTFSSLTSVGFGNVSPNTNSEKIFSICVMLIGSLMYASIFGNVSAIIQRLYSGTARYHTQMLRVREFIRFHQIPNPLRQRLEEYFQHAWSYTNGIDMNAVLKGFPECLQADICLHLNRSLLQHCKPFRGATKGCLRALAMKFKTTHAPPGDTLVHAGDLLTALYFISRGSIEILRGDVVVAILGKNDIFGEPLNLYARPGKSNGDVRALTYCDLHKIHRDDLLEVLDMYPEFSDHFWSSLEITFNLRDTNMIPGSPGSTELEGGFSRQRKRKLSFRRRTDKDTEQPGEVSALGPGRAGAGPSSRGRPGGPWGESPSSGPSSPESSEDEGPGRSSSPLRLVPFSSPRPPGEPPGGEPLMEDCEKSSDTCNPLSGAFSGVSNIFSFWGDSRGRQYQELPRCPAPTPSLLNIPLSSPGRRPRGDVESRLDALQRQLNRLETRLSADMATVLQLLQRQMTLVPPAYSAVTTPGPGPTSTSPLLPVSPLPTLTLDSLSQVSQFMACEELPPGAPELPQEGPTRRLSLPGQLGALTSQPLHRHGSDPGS

Structure (SMILES)	hERG current change (%, negative = inhibition) at 1uM [%]
NS(=O)(=O)c1ccc(CNC(=O)C23CC4CC(CC(C4)C2)C3)cc1	16.5
O=C(O)c1ccccc1SCc1ccc2c(c1)OCO2	4.59
CN1C(=O)c2ccc(C(=O)Nc3cccnc3)cc2C1=O	8.96
Cc1ccc(NC(=S)N2CCC(c3ccccc3)C2)c(Cl)c1 (stereo not shown)	7.63
Cc1cc(C)nc(Nc2nc(C)c3cc4c(cc3n2)OCO4)n1	2.4
Cc1ccnc(NS(=O)(=O)c2ccc(NC(=O)c3c(-c4ccccc4Cl)noc3C)cc2)n1	6.93
Cc1cc2nc(-c3ccc(SCC(=O)NC(C)C)nc3)[nH]c2cc1C	6.59
Cc1oncc1-c1csc(-c2ccccc2Cl)n1	3.03
O=C(CCl)N(C/C=C/c1ccccc1)c1ccc2c(c1)OCCO2	6.18
CCOC(=O)c1cc(S(=O)(=O)N2CC(C)CC(C)C2)cn1C (stereo not shown)	11.5
COC(=O)c1cc2sccc2n1Cc1nc(-c2cccc(Cl)c2)oc1C	16.5
O=C(NNC(=O)c1ccco1)c1cccc([N+](=O)[O-])c1	16.6
Cc1ccc2oc(Nc3nc(C)c(C)c(C)n3)nc2c1	15.9
C/C(=N\NC(=O)c1cc(C)nc2ccccc12)c1cccc(Cl)c1	19.9
Cc1ccc(C)c(N2CCN(S(=O)(=O)CC34CCC(CC3=O)C4(C)C)CC2)c1 (stereo not shown)	14.2
Cc1nnnn1CC(=O)Nc1ccccc1[N+](=O)[O-]	8.11
CC(=O)Nc1ccc(C(=O)OCc2ccccc2Cl)cc1	0.0329
N#Cc1ccccc1Sc1ccccc1C(=O)NCC(c1ccco1)N1CCCCC1 (stereo not shown)	9.86
COc1ccc(N2CCN(C(=O)CCNC(=O)Cn3ccc4ccccc4c3=O)CC2)cc1	1.6
CCN(C(=O)CN1C(=O)NC2(CCc3ccccc32)C1=O)C1CCS(=O)(=O)C1 (stereo not shown)	13
COc1ccc(OCCCC(=O)NCC(C)C)cc1	6.87
O=C(NC(Cc1ccc2c(c1)OCO2)C(=O)N1CCCC1C(=O)O)c1ccccc1 (stereo not shown)	10.7
COc1cc(/C=N/NC(N)=S)ccc1OC(=O)c1ccc(C)cc1	6.94
CC(=O)c1ccc(N2CCN(C(=O)CCCn3c(=O)[nH]c4ccsc4c3=O)CC2)cc1	18.7
CC(=O)c1ccc(NC(=O)C(C)NCc2ccccc2Cl)cc1 (stereo not shown)	3.61
